Measured values published in the supplement of paper PMC6089552.
The campaign covered roughly 3,200 compounds. About 300 (9.4%) showed activity. The list shows a part of the results, in another mix than the full data.

Test system: A673/TR/shEF
Assay: cell viability (LOESS-normalised, relative to median of negative controls) (log2 ratio); higher = more viable cells (less compound effect), active = hit call of the paper (over 3 MAD below the median)
Conditions: treatment time: 72 h
Outline: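 A673/TR/shEF Ewing sarcoma cells were plated at 1,500 per well in 384-well plates and cultured with or without doxycycline, added 24 h before compounds, to induce EWS-FLI1 shRNA knockdown. Library compounds at two or more concentrations, alongside DMSO controls, were applied for three days. Cell viability was measured by CellTiter-Glo luminescence on an Envision reader. Readings were LOESS-corrected per plate, divided by the median of negative controls and log2-transformed, and hits were wells lying at least three median absolute deviations from the median of all screened wells.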

[1] = 0.103 µM, library screen: screen3, EWS-FLI1 expression: high (no doxycycline)
[2] = 0.103 µM, library screen: screen3, EWS-FLI1 expression: low (doxycycline-induced shRNA knockdown)
[3] = 0.25 µM, library screen: screen2, EWS-FLI1 expression: high (no doxycycline)
[4] = 0.25 µM, library screen: screen2, EWS-FLI1 expression: low (doxycycline-induced shRNA knockdown)
[5] = 0.308 µM, library screen: screen3, EWS-FLI1 expression: high (no doxycycline)
[6] = 0.308 µM, library screen: screen3, EWS-FLI1 expression: low (doxycycline-induced shRNA knockdown)
[7] = 0.926 µM, library screen: screen3, EWS-FLI1 expression: high (no doxycycline)
[8] = 0.926 µM, library screen: screen3, EWS-FLI1 expression: low (doxycycline-induced shRNA knockdown)
[9] = 2.5 µM, library screen: screen2, EWS-FLI1 expression: high (no doxycycline)
[10] = 2.5 µM, library screen: screen2, EWS-FLI1 expression: low (doxycycline-induced shRNA knockdown)
[11] = 2.8 µM, library screen: screen3, EWS-FLI1 expression: high (no doxycycline)
[12] = 2.8 µM, library screen: screen3, EWS-FLI1 expression: low (doxycycline-induced shRNA knockdown)
[13] = 8.3 µM, library screen: screen3, EWS-FLI1 expression: high (no doxycycline)
[14] = 8.3 µM, library screen: screen3, EWS-FLI1 expression: low (doxycycline-induced shRNA knockdown)
[15] = 25 µM, library screen: screen3, EWS-FLI1 expression: high (no doxycycline)
[16] = 25 µM, library screen: screen3, EWS-FLI1 expression: low (doxycycline-induced shRNA knockdown)
[17] = 0.25 µM, library screen: screen1, EWS-FLI1 expression: high (no doxycycline)
[18] = 0.25 µM, library screen: screen1, EWS-FLI1 expression: low (doxycycline-induced shRNA knockdown)
[19] = 2.5 µM, library screen: screen1, EWS-FLI1 expression: high (no doxycycline)
[20] = 2.5 µM, library screen: screen1, EWS-FLI1 expression: low (doxycycline-induced shRNA knockdown)

Measured: cell viability (log2)

COc1cc2c(cc1O)CC[C@@H]1[C@@H]2CC[C@]2(C)[C@@H](O)CC[C@@H]12
active: [15] -1.25 | [16] -0.177
inactive: [1] 0.0202 | [2] 0.0975 | [3] 0.11 | [4] 0.04 | [5] 0.0934 | [6] 0.0693 | [7] -0.0172 | [8] 0.0926 | [9] 0.0437 | [10] 0.0893 | [11] 0.045 | [12] 0.00908 | [13] -0.104 | [14] -0.0169

O=c1c(O)c(-c2ccccc2)oc2ccccc12
inactive: [17] 0.0903 | [18] -0.0523 | [19] 0.153 | [20] 0.0869

COc1cc(=O)n(C)c2c(OCC(O)C(C)(O)OC)cccc12 (stereo unspecified)
inactive: [3] 0.0868 | [4] 0.119 | [9] 0.0738 | [10] 0.114

CO[C@@]1(NC(=O)C(C(=O)O)c2ccc(O)cc2)C(=O)N2C(C(=O)O)=C(CSc3nnnn3C)CO[C@@H]21 (stereo partly specified)
inactive: [17] 0.0656 | [18] 0.0075 | [19] 0.163 | [20] -0.00521

Oc1cc(O)cc(/C=C/c2ccccc2)c1
inactive: [17] 0.0674 | [18] 0.00318 | [19] 0.07 | [20] 0.0614

COC(=O)C1=C(C)N=C2SCCC(=O)N2C1c1ccc(OC)cc1 (stereo unspecified)
inactive: [17] 0.0178 | [18] 0.0759 | [19] 0.0162 | [20] 0.0699

C#C[C@]1(O)CC[C@H]2[C@@H]3CCC4=CC(=O)CC[C@@H]4[C@H]3CC[C@@]21C
inactive: [17] 0.148 | [18] -0.0274 | [19] 0.138 | [20] 0.146

O=[N+]([O-])c1ccc(Oc2ccc(Br)cc2)c(C(O)[P+](=O)O)c1 (stereo unspecified)
active: [19] -0.289 | 25 µM, library screen: screen1, EWS-FLI1 expression: high (no doxycycline) -0.404
inactive: 0.025 µM, library screen: screen1, EWS-FLI1 expression: high (no doxycycline) 0.0442 | 0.025 µM, library screen: screen1, EWS-FLI1 expression: low (doxycycline-induced shRNA knockdown) 0.0701 | [17] 0.235 | [18] 0.0171 | [20] -0.0253 | 25 µM, library screen: screen1, EWS-FLI1 expression: low (doxycycline-induced shRNA knockdown) -0.0834

COc1cc2c(CCNC(C)=O)c[nH]c2cc1O
inactive: [3] 0.151 | [4] 0.0505 | [9] 0.0559 | [10] -0.0127

C[C@@H]1CC[C@@]2(OC1)O[C@H]1C[C@H]3[C@@H]4CC[C@H]5C[C@@H](O)CC[C@]5(C)[C@H]4CC[C@]3(C)[C@H]1[C@@H]2C
inactive: [17] 0.0465 | [18] 0.154 | [19] 0.0795 | [20] 0.116

CC(=O)OC/C=C(C)/C=C/C=C(C)/C=C/C1=C(C)CCCC1(C)C
inactive: [17] 0.18 | [18] 0.0819 | [19] 0.143 | [20] 0.0752

O=C1C(CC[S+]([O-])c2ccccc2)C(=O)N(c2ccccc2)N1c1ccccc1 (stereo unspecified)
inactive: [17] 0.123 | [18] 0.158 | [19] 0.184 | [20] 0.139

O=C(c1cc(-c2ccccc2)nc2ccccc12)N1CCN(c2ccccc2)CC1
inactive: [17] 0.112 | [18] 0.0402 | [19] 0.113 | [20] 0.188

COc1cc(C(=O)O)c2c(c1C)OC(=O)c1c(C)cc(O)c(C=O)c1O2
inactive: [17] 0.0519 | [18] 0.109 | [19] 0.00408 | [20] 0.151

Cc1ccccc1/C=C/C1=NCCN1
inactive: [3] 0.0935 | [4] 0.0996 | [9] 0.108 | [10] 0.0398

COc1cc(OC)c2c(=O)c(OC)c(-c3ccc(OC)c(OC)c3)oc2c1
inactive: [17] 0.019 | [18] 0.0595 | [19] 0.0902 | [20] -0.0343

CCC(c1ccc(O)cc1)C(CC)c1ccc(O)cc1 (stereo unspecified)
inactive: 0.025 µM, library screen: screen2, EWS-FLI1 expression: high (no doxycycline) 0.0967 | 0.025 µM, library screen: screen2, EWS-FLI1 expression: low (doxycycline-induced shRNA knockdown) 0.0512 | [1] 0.0624 | [2] 0.0579 | [17] 0.175 | [18] 0.195 | [3] 0.0602 | [4] 0.0273 | [5] -0.0519 | [6] -0.0221 | [7] 0.046 | [8] 0.0839 | [19] 0.196 | [20] 0.218 | [9] 0.0973 | [10] 0.0343 | [11] -0.0191 | [12] 0.0243 | [13] -0.064 | [14] 0.0359 | 25 µM, library screen: screen2, EWS-FLI1 expression: high (no doxycycline) 0.0788 | 25 µM, library screen: screen2, EWS-FLI1 expression: low (doxycycline-induced shRNA knockdown) 0.0603 | [15] 0.0343 | [16] -0.0133

CC(C)[C@@H]1CC[C@@H](C)C[C@H]1O
inactive: [17] 0.0972 | [18] 0.134 | [19] 0.106 | [20] 0.157

COc1ccc(CCN(C)CCc2ccc(OC)c(OC)c2)cc1OC
inactive: [3] 0.187 | [4] 0.0366 | [9] 0.198 | [10] 0.0294

CC[N+](CC)(CC)CC
inactive: [3] 0.151 | [4] 0.0491 | [9] 0.135 | [10] 0.00996
